# Laboratory results reported in the supplement of paper PMC3334620.
# Whole data set: some 33,000 sequences, median “E-score (-0.5 to 0.5)” near -0.013, cut for the highest 2% near 0.3. The list shows a part of the results.
# Target: T1, Msn1 (UniProt P22148)
# T1 sequence: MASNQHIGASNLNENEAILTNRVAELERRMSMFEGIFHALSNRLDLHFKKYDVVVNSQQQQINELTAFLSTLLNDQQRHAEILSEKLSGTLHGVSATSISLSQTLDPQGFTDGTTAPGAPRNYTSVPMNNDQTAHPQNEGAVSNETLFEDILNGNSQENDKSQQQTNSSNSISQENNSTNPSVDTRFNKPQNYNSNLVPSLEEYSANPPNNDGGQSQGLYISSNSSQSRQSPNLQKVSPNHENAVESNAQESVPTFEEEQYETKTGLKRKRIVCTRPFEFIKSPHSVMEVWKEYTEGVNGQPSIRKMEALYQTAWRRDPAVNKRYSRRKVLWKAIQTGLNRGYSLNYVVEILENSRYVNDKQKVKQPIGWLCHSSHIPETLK
# Experiment: PBM E-score (8-mer binding enrichment) (E-score (-0.5 to 0.5)); higher = stronger / more preferred TF binding; most listed sequences are background and not binding sites
# Settings: protein concentration: 200 nM; construct: GST-full length
# Outline: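 Bound GST-tagged yeast transcription factors, applied at about 100-200 nM to double-stranded universal all-10-mer Agilent arrays, were detected with fluorescent anti-GST. Scans were normalised with masliner. A modified Wilcoxon-Mann-Whitney statistic, the E-score, was assigned to each ungapped eight-base word pooled with its reverse complement by the Universal PBM Analysis Suite.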
row,Sequence,PBM E-score
1,TGATGCAA,-0.0374
2,AATGCACT,0.0779
3,CCATTGTA,0.193
4,TACAAGCA,0.153
5,TGCCGACA,0.0657
6,ACGTATAT,-0.0231
7,CCCGAAAC,0.0881
8,AACGCGAC,0.12
9,ATTACCTC,-0.129
10,GCGTTAGA,-0.0741
11,AATTAACG,0.0476
12,ATGCAAAG,-0.174
13,GGGCTTCA,-0.174
14,CAAACGCG,0.143
15,ATAGTCAG,0.0958
16,GCACCAGA,-0.0389
17,CCGCTTTC,-0.0394
18,AGCCGCAA,-0.104
19,CGACCTCG,0.0004
20,ACAATAAT,0.226
21,CACTCCTG,-0.0699
22,ACTGAAGC,-0.0558
23,TCACGAGA,-0.155
24,CCCAATTA,0.00991
25,GAAGTGAC,0.035

row,Sequence,PBM E-score
1,CCACATGA,-0.0225
2,CGAAGGGC,-0.133
3,CTCACGTC,-0.0704
4,AAAATATG,0.25
5,GAAACGAA,0.115
6,CGGGACTA,-0.0343
7,CGTGTGTC,0.0945
8,ATGCTTCG,-0.0312
9,GCCAATTA,0.0707
10,ACGTTTAG,0.0819
11,ACAGGATC,-0.143
12,CTACAGGA,0.172
13,CGGGCTCC,-0.163
14,AAATGATC,-0.0173
15,CAGGACCG,0.0269
16,CGGGCGGA,-0.115
17,AAAGATAA,0.14
18,GGCCTTAC,-0.18
19,CTTATCAC,-0.153
20,GGATGCGA,-0.263
21,ACCCTATA,-0.242
22,ATTCCATC,-0.0374
23,AGGAAACT,0.025
24,AGCCAGTA,-0.221
25,AAATAAAA,0.152

row,Sequence,PBM E-score
1,ACATTCAG,0.118
2,TAGATATA,0.0924
3,CTTACCAC,-0.136
4,GAGGAATC,-0.229
5,AATACAAC,0.0955
6,AATAACCA,0.0204
7,ATGATTAC,0.0458
8,CGCACGGC,-0.0248
9,ATATAAAC,0.165
10,AGTCGGCC,0.0396
11,GGGTTTAA,-0.0514
12,TCGGGCAA,0.159
13,GTTGCGAA,-0.00877
14,GTCGGTAA,-0.0694
15,AGACAGCG,-0.0898
16,CGACTTGC,-0.044
17,TACAGCTA,-0.321
18,ACGCAAAT,-0.138
19,CGTGAAAC,0.0533
20,GTGAGGAA,-0.12
21,ACAATGAT,0.207
22,TCCACGAA,0.0823
23,CCCCACGA,-0.108
24,CATGAGGA,0.00142
25,GACATTAA,0.431

row,Sequence,PBM E-score
1,AGCTCCTC,-0.315
2,CCGTGCCC,-0.316
3,AACGATGC,-0.27
4,ATGTTGAA,0.00843
5,AGTTTCAA,-0.0354
6,CTCAATGC,-0.152
7,AAACGAGT,0.117
8,CGCCATCC,-0.325
9,GTAAACAA,0.244
10,CACTCCAA,-0.0743
11,ATAGCTCC,-0.0819
12,CAAAAGTC,0.282
13,ATGGGAAA,-0.0265
14,GTGTCTTA,0.04
15,ACCATAGT,-0.0307
16,GCTATACA,-0.11
17,GCGTAATA,-0.091
18,AGTACGCG,0.0601
19,GACTCGGC,-0.0674
20,GAATAGTC,0.0177
21,TATCCCCA,-0.0644
22,AAGATCCA,-0.0273
23,CTTTCTTA,0.146
24,GTTCAATA,-0.00627
25,CTTCCGGA,0.132

row,Sequence,PBM E-score
1,AACCTCTG,-0.259
2,CCCTCCCA,-0.161
3,AACAAGTA,-0.0396
4,GGAAAGAA,-0.0445
5,ATGGTATA,0.102
6,ACTGGGTC,-0.357
7,TGGCGCCA,-0.191
8,CCTGGGAC,0.0273
9,CGGGGTCA,-0.0794
10,TGCGCCAA,-0.0871
11,CCCCTTAC,-0.214
12,AATTTACA,0.00341
13,AGTATACG,0.0404
14,ATAACATC,-0.0182
15,CAATAGCA,-0.168
16,ACTACGCC,-0.229
17,GCTTACGA,-0.156
18,GTAATAGA,-0.137
19,ATTCTAAC,-0.11
20,CGTCTCAA,0.00785
21,AAAGAAAA,0.201
22,CAGGCGAA,-0.0597
23,AGCGGGGG,-0.382
24,AATAGTAA,0.144
25,AAGTTGCC,-0.115

row,Sequence,PBM E-score
1,ATGGCCCG,-0.052
2,AAGGCTCA,0.00716
3,ACATCATG,0.153
4,CATTCGTA,-0.0427
5,AGGGGTCA,-0.0619
6,TACTCTAA,0.00869
7,GCTGACAC,0.105
8,AGAGCCCT,-0.142
9,TGACGGAA,0.0985
10,CGAAGACA,0.259
11,AGGCACTG,0.0208
12,CCTGCAAG,-0.262
13,CCACTGGC,0.051
14,GCAAATTA,-0.0115
15,AACGCGCT,0.0559
16,GCGATAAA,0.0531
17,CGGCGAGC,0.0882
18,ACTGGGAG,-0.106
19,GACTAGGA,0.112
20,AGTTACTA,-0.0184
21,CGATCAAG,-0.0494
22,GAGCAACA,-0.0705
23,CTGGCCTA,-0.218
24,CACGGCTA,0.0276
25,ACTAGCTA,-0.0388

row,Sequence,PBM E-score
1,AGGGCTAA,-0.0295
2,ACGAGAGC,-0.118
3,CTATGACC,-0.0237
4,TCGGACCA,0.12
5,GCGAGATA,0.09
6,AACTATCG,-0.109
7,CGCTTCAA,0.0409
8,GCGCTTTA,0.0318
9,CCTTTCGA,0.00331
10,AGTTCTTC,0.045
11,ATCTTTTG,0.0826
12,ACTACACG,0.00207
13,GACTGCCC,-0.173
14,GATGGAGC,-0.185
15,AAGGCTAA,-0.0866
16,ATGAATCG,0.0497
17,GAAAGCAC,-0.106
18,AGCGGGAC,-0.0126
19,GATTACGA,0.106
20,GCAGTGGA,0.0771
21,ACACTTAG,0.0598
22,GCGTCGTA,0.163
